System: inflammation of the hind paw produced by formalin
Test: formalin-induced hind paw inflammation measured with a plethysmometer
Type: in vivo, rat
Conditions: pretreatment at doses that inhibit phase II of the formalin behavioral response; FIGS. 10 and 11
Text: (see, for example, FIGS. 10 and 11).

Structure (SMILES)	effect upon the inflammation produced by formalin (paw volume)
CC(C)Oc1ccc2c(c1)CCc1c-2c2c(c3c4ccccc4n(CCO)c13)CNC2=O [IX]	had no effect
CC(C)Oc1ccc2c(c1)CCc1c-2c2c(c3c1[nH]c1ccc(F)cc13)CNC2=O [VIII]	had no effect

— US7018999B2, “Methods for the treatment and prevention of pain” (Cephalon, Inc., priority 2001, dated 2006)
